# Test results as given in PubChem BioAssay AID485294 (National Center for Advancing Translational Sciences (NCATS), 2010).
# The campaign covered roughly 370,000 compounds. About 150 (0.041%) were called active. Inconclusive means that the source gave no clear call. Such entries were picked first, then a sample of the others. Calls come from the whole dose curve; as a rule, active = well fitted inhibition curve with a large enough effect; inconclusive = small, poorly fitted or top-dose-only effect; inactive = flat fitted curve, though single readings scatter. Potencies of inconclusive entries are left out as doubtful fits.
# Target: Beta-lactamase (Escherichia coli (strain K12)) (UniProt P00811)
# Chain of UniProt P00811 (P00811 whole entry, looked up): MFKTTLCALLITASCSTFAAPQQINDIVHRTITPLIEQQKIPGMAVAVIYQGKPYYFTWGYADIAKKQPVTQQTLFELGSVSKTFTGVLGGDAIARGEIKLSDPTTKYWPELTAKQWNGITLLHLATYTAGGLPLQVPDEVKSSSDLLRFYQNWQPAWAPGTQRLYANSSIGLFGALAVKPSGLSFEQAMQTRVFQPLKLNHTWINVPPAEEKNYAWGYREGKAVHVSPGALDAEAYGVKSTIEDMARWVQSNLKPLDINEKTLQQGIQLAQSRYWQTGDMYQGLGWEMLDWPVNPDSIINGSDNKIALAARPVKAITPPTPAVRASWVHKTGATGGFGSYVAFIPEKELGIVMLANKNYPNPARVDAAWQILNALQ
# Test: qHTS Inhibitors of AmpC Beta-Lactamase (assay with detergent); note: nearly all actives have a fitted effect of over 25% in size;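 for activity change, negative = inhibition: 0% = no-compound wells and -100% = no-enzyme wells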
# Conditions: AmpC hydrolysis of nitrocefin, absorbance 480 nm, 0.01% Triton; activity change, negative = inhibition: at 114 µM (top of the series)
# Summary of the method: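 AmpC (5.3 nM in the dispensed reagent) in 20 mM phosphate pH 7.0 with 0.01% (detergent screen) or 0.0001% Triton X-100 was preincubated with compounds for 15 min at room temperature. Nitrocefin was then added from an 800 uM solution, and hydrolysis was followed at 480 nm.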
# Potency is the fitted concentration of half-maximal effect; tags give direction and shape of the fitted curve.
Structure (SMILES),Potency,"activity change, negative = inhibition"
CCOc1ccc(NC(=S)Nc2cc(-c3ccccc3)[nH]n2)cc1,"inconclusive [inhibitor, full curve, poor fit]",
CC(=O)Nc1sc2c(c1C#N)CCC(C)C2 (stereo not given),,inactive: -13.3%
CC(NC(=O)C1CCC(C(=O)NC(C)c2ccccc2)CC1)c1ccccc1 (stereo not given),"inconclusive [inhibitor, partial curve]",
COC(=O)c1cc(O)c(OCc2ccccc2)c(O)c1,"inconclusive [inhibitor, full curve]",
Cn1nc([N+](=O)[O-])nc1N1CCOCC1,,inactive: -10.1%
Cc1cccc(Nc2nnc(SCC(=O)NC(=O)Nc3ccc4c(c3)OCCO4)s2)c1,,inactive: -10.2%
COC(=O)c1ccc(NC(=O)CN2CCN(CCO)CC2)cc1,"inconclusive [inhibitor, full curve, poor fit]",
CCOC(=O)c1c(S(=O)(=O)N2CCC(C(=O)NCc3cccc(C)c3)CC2)c(C)n(C)c1C,,inactive: 1.09%
O=C(NCc1ccc2c(c1)OCO2)C(C(=O)c1ccccc1)n1cc(Cl)ccc1=O (stereo not given),"inconclusive [inhibitor, full curve, poor fit]",
CCc1ccccc1NC(=O)c1cnn(-c2ccccc2)c1C,,inactive: -9.67%
COc1ccc(NC(=O)Nc2ccc(OC)c(OC)c2)c([N+](=O)[O-])c1,"inconclusive [inhibitor, single point]",
O=C(NCCCN1CCOCC1)c1ccc([N+](=O)[O-])cc1[N+](=O)[O-],"inconclusive [inhibitor, single point]",
O=C1N=C(N2CCCCC2)S/C1=C\c1ccc(Cl)cc1,"inconclusive [inhibitor, full curve]",
COc1cc2c(OC)cccc2cc1C(=O)O,"inconclusive [inhibitor, full curve]",
CC(=O)c1ccc(NC(=O)C2CCCO2)cc1 (stereo not given),,inactive: 1.44%
C=CCn1c(SCc2c(C)noc2C)nc2sc3c(c2c1=O)CCCC3,,inactive: -10.4%
CCOC(=O)c1[nH]c(C)c(C(=O)OCCN2C(=O)c3ccccc3C2=O)c1C,"inconclusive [inhibitor, partial curve]",
CCCc1ccc(C(=O)[C@@H]2[C@@H](C(C)=O)N3c4ccc(F)cc4C=C[C@@H]3[C@@]23C(=O)Nc2ccccc23)cc1,"inconclusive [inhibitor, single point]",
Cc1ccc(C(=O)n2nc(C)c(S(=O)(=O)N3CCCCCC3)c2C)cc1C,,inactive: -0.664%
O=C(O)c1ccc(-c2nc(-c3ccc(Cl)cc3)cs2)cc1,"inconclusive [inhibitor, full curve, poor fit]",
O=S(=O)(Nc1ncnc2c1oc1ccccc12)c1ccc(Cl)s1,"inconclusive [inhibitor, partial curve, poor fit]",
CCN(CC)C(=O)c1nn(Cc2ccccc2)c(=O)c2ccccc12,"inconclusive [inhibitor, full curve, poor fit]",
O=C(COC(=O)C(Cc1ccccc1)NC(=O)c1ccccc1)c1ccccc1 (stereo not given),,inactive: -7.03%

Structure (SMILES),Potency,"activity change, negative = inhibition"
COc1cc(/C=C2\C(=O)ON=C2c2ccccc2)cc(Cl)c1O,"inconclusive [inhibitor, full curve, poor fit]",
CCN(CC)CCn1c2c(c(SCC(=O)Nc3ccc(C)c(F)c3)nc1=O)CCC2,"inconclusive [inhibitor, single point]",
C=CCN(CC=C)CCOc1cc(C)ccc1[N+](=O)[O-],,inactive: -12.6%
O=C(NNC1=Nc2ccccc2SC1)c1ccc(F)cc1,,inactive: 1.63%
CCOc1ccccc1N1CCN(C(=O)CSc2ccc3c(c2)OCCO3)CC1,"inconclusive [inhibitor, full curve, poor fit]",
CCN(CC)S(=O)(=O)c1ccc(NC(=O)c2cc3ccc4cccnc4c3[nH]2)cc1,,inactive: 16.8%
O=C(O)c1ccccc1Nc1ccccc1C(=O)O,,inactive: -9.13%
O=C(CN1C(=O)C(=O)c2ccccc21)NC1CCCCC1,"inconclusive [inhibitor, single point]",
CCC(C)N1CC(=O)N2Cc3[nH]c4ccccc4c3C[C@H]2C1=O (stereo not given in full),"inconclusive [inhibitor, single point]",
Cc1cc(N2CCN(C)CC2)nc2ccc(NC(=O)c3ccc(C(C)(C)C)cc3)cc12,,inactive: 13.4%
CCOC(=O)CNC(=O)c1sc(NC(=O)c2cccc(F)c2)nc1C,"inconclusive [inhibitor, single point]",
Clc1ccc(-n2ncc3c(NCc4cccnc4)ncnc32)cc1Cl,,inactive: 2.3%
CCCS(=O)(=O)NCCc1cc2cc(C)c(C)cc2[nH]c1=O,"inconclusive [inhibitor, full curve]",
CC1(C)CC(=O)c2cc(C(=O)N3CCCC(C)(C)C3)c(=O)n(-c3ccccc3)c2C1,"inconclusive [inhibitor, full curve, poor fit]",
CCn1c(SCC(=O)N(C)C)nc2cc(S(=O)(=O)N3CCOCC3)ccc21,,inactive: -17.1%
O=C(NCc1ccccn1)[C@H]1C[C@@H]1[C@H](NP(=O)(c1ccccc1)c1ccccc1)c1ccccc1,"inconclusive [inhibitor, full curve, poor fit]",
COc1cc(OC)c(S(=O)(=O)Nc2ccccc2N2CCCCC2)cc1NC(C)=O,,inactive: -2.84%
CC(OC(=O)c1cccnc1SCc1cc(=O)n2ccccc2n1)c1ccccn1 (stereo not given),"inconclusive [inhibitor, single point]",
COc1ccc(OC)c(/C=C/C(=O)Nc2ccc3c(c2)CCC3)c1,"inconclusive [inhibitor, full curve, poor fit]",
COc1cccc(-c2nnc(-c3ccc(C(F)(F)F)cc3)o2)c1OC,"inconclusive [inhibitor, partial curve, poor fit]",
O=C1CC(N2C(=O)/C(=C/C=C/c3ccccc3)SC2=S)C(=O)N1c1ccccc1 (stereo not given),"inconclusive [inhibitor, full curve]",
COc1cc2[nH]c(=O)n(CCCCCC(=O)N3CC=C(c4ccccc4)CC3)c(=O)c2cc1OC,"inconclusive [inhibitor, partial curve]",
